Laboratory results published in US4927843A (priority 1986, dated 1990).

Tested on: oncoviruses (M-MuLV, R-MuLV, RSV, RD114, D17, B 95)
Details: 3.4 uM to 34 uM
Method: The compounds mentioned above were finely powdered and suspended in sterile manner in the solvent dimethylsulfoxide (DMSO). Stock solutions of 10 mg/ml DMSO were prepared and used for preparation of the various dilutions employed for the in-vitro examinations. Dilutions from stock solution were prepared either in phosphate saline buffer (PBS) pH-7.0 or in growth medium--minimal essential medium (Eagle's MEN).
Our experimental results relate to the inhibition of onco-viruses by the described thiosemicarbazone compounds. Different fibroblasts cell-lines, chronically infected with various oncoviruses (see Table 1) were incubated with different concentrations of the thiosemicarbazone compounds. Virus production in drug-treated and untreated cells was followed for 12 hours. Inhibition of virus production was determined by assaying virus reverse transcriptase activity. The inhibition was proportional to drug concentration and time of treatment. Concentrations ranging from 3.4 uM to 34 uM of each of the drugs were tested and found to be effective, giving inhibitions ranging from 20% for the low concentration and an inhibition of 90% in virus production for the 34 uM concentration, after 6 to 9 hours of exposure.

CN1C(=O)C(=NNC(N)=S)c2ccccc21 [M-IBT, N-methylisatine 3-thiosemicarbazone]
effectiveness against oncoviruses in infected fibroblasts: ineffective
